# The other results are listed elsewhere or left out.
# B1: VLRB.aGPA.23-GCN4-biotin (Petromyzon marinus) (protein)
# chain: ACPSQCSCSGTEVNCAGKSLASVPAGIPTTTRVLYLNSNQITKLEPGVFDRLANLRELHLWGNQLVSLPPGVFDNLANLEKLWLNSNQLTSLPAGLFDRLVNLEHLGLCCMKLTELPSGAFDKLTRLKQLGLDQNQLKSIPDGAFARLPSLTHVWLHTNPWDCQCTDILYLSGWVAQHSSIVGEGWPWRHSPDSAKCSGTNTPVRAVTEASTSPSKCP
# Columns and labels:
# Assay in all cases: glycan array binding signal (z-score within array); higher = stronger binding
# Conditions in all cases: glycan notation: IUPAC condensed, linker removed
# [1] = molecular target: Gal(b1-4)GalNAc(b1-3)[Fuc(a1-2)]Gal(b1-4)GlcNAc
# Summary of the method: (§1)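 From the Consortium for Functional Glycomics database, 3228 arrays were curated, keeping only those whose protein sequence was available. Binding is given as a within-array Z-score averaged across arrays sharing a protein sequence and across linkers. Negative Z-scores can be read as non-binding.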
# [2] = molecular target: Gal(b1-4)Glc
# Summary of the method: as §1
# [3] = molecular target: Gal(b1-4)Glc6S
# Summary of the method: as §1
# [4] = molecular target: Gal(b1-4)GlcNAc
# Summary of the method: as §1
# [5] = molecular target: Gal(b1-4)GlcNAc(a1-6)Gal(b1-4)GlcNAc
# Summary of the method: as §1
# [6] = molecular target: Gal(b1-4)GlcNAc(b1-2)Man
# Summary of the method: as §1
# [7] = molecular target: Gal(b1-4)GlcNAc(b1-2)Man(a1-3)Man(b1-4)GlcNAc(b1-4)GlcNAc
# Summary of the method: as §1
# [8] = molecular target: Gal(b1-4)GlcNAc(b1-2)Man(a1-3)[Gal(b1-4)GlcNAc(b1-2)Man(a1-6)]Man(b1-4)GlcNAc(b1-4)GlcNAc
# Summary of the method: as §1
# [9] = molecular target: Gal(b1-4)GlcNAc(b1-2)Man(a1-3)[Gal(b1-4)GlcNAc(b1-2)Man(a1-6)]Man(b1-4)GlcNAc(b1-4)[Fuc(a1-6)]GlcNAc
# Summary of the method: as §1
# [10] = molecular target: Gal(b1-4)GlcNAc(b1-2)Man(a1-3)[Gal(b1-4)GlcNAc(b1-2)Man(a1-6)][Gal(b1-4)GlcNAc(b1-4)]Man(b1-4)GlcNAc(b1-4)[Fuc(a1-6)]GlcNAc
# Summary of the method: as §1
# [11] = molecular target: Gal(b1-4)GlcNAc(b1-2)Man(a1-3)[Gal(b1-4)GlcNAc(b1-2)Man(a1-6)][GlcNAc(b1-4)]Man(b1-4)GlcNAc(b1-4)[Fuc(a1-6)]GlcNAc
# Summary of the method: as §1
# [12] = molecular target: Gal(b1-4)GlcNAc(b1-2)Man(a1-3)[GlcNAc(b1-2)Man(a1-6)]Man(b1-4)GlcNAc(b1-4)GlcNAc
# Summary of the method: as §1
# [13] = molecular target: Gal(b1-4)GlcNAc(b1-2)Man(a1-3)[GlcNAc(b1-4)][Gal(b1-4)GlcNAc(b1-2)Man(a1-6)]Man(b1-4)GlcNAc(b1-4)GlcNAc
# Summary of the method: as §1
# [14] = molecular target: Gal(b1-4)GlcNAc(b1-2)Man(a1-3)[Man(a1-6)]Man(b1-4)GlcNAc(b1-4)GlcNAc
# Summary of the method: as §1
# [15] = molecular target: Gal(b1-4)GlcNAc(b1-2)Man(a1-6)Man(b1-4)GlcNAc(b1-4)GlcNAc
# Summary of the method: as §1
# [16] = molecular target: Gal(b1-4)GlcNAc(b1-2)Man(a1-6)[GlcNAc(b1-2)Man(a1-3)]Man(b1-4)GlcNAc(b1-4)GlcNAc
# Summary of the method: as §1
# [17] = molecular target: Gal(b1-4)GlcNAc(b1-2)Man(a1-6)[Man(a1-3)]Man(b1-4)GlcNAc(b1-4)GlcNAc
# Summary of the method: as §1
# [18] = molecular target: Gal(b1-4)GlcNAc(b1-2)[Gal(b1-4)GlcNAc(b1-4)]Man(a1-3)[Gal(b1-4)GlcNAc(b1-2)Man(a1-6)]Man(b1-4)GlcNAc(b1-4)GlcNAc
# Summary of the method: as §1
# [19] = molecular target: Gal(b1-4)GlcNAc(b1-2)[Gal(b1-4)GlcNAc(b1-4)]Man(a1-3)[Gal(b1-4)GlcNAc(b1-2)[Gal(b1-4)GlcNAc(b1-6)]Man(a1-6)]Man(b1-4)GlcNAc(b1-4)GlcNAc
# Summary of the method: as §1
# [20] = molecular target: Gal(b1-4)GlcNAc(b1-2)[Gal(b1-4)GlcNAc(b1-4)]Man(a1-3)[GlcNAc(b1-4)][Gal(b1-4)GlcNAc(b1-2)Man(a1-6)]Man(b1-4)GlcNAc(b1-4)GlcNAc
# Summary of the method: as §1
# [21] = molecular target: Gal(b1-4)GlcNAc(b1-2)[Gal(b1-4)GlcNAc(b1-4)]Man(a1-3)[GlcNAc(b1-4)][Gal(b1-4)GlcNAc(b1-2)[Gal(b1-4)GlcNAc(b1-6)]Man(a1-6)]Man(b1-4)GlcNAc(b1-4)GlcNAc
# Summary of the method: as §1
# [22] = molecular target: Gal(b1-4)GlcNAc(b1-2)[Gal(b1-4)GlcNAc(b1-6)]Man(a1-6)[Gal(b1-4)GlcNAc(b1-2)Man(a1-3)]Man(b1-4)GlcNAc(b1-4)GlcNAc
# Summary of the method: as §1
binder,measurement,setting,value
B1,glycan array binding signal (z-score),[1],-0.086
same,glycan array binding signal (z-score),[2],-0.079
same,glycan array binding signal (z-score),[3],-0.078
same,glycan array binding signal (z-score),[4],-0.077
same,glycan array binding signal (z-score),[5],-0.077
same,glycan array binding signal (z-score),[6],-0.077
same,glycan array binding signal (z-score),[7],-0.08
same,glycan array binding signal (z-score),[8],-0.084
same,glycan array binding signal (z-score),[9],-0.075
same,glycan array binding signal (z-score),[10],-0.086
same,glycan array binding signal (z-score),[11],-0.081
same,glycan array binding signal (z-score),[12],-0.082
same,glycan array binding signal (z-score),[13],-0.083
same,glycan array binding signal (z-score),[14],-0.076
same,glycan array binding signal (z-score),[15],-0.082
same,glycan array binding signal (z-score),[16],-0.087
same,glycan array binding signal (z-score),[17],-0.084
same,glycan array binding signal (z-score),[18],-0.08
same,glycan array binding signal (z-score),[19],-0.084
same,glycan array binding signal (z-score),[20],-0.083
same,glycan array binding signal (z-score),[21],-0.083
same,glycan array binding signal (z-score),[22],-0.063

# — the supplement of paper PMC8728848
